Measured values reported in the supplement of paper PMC8728848.
Some of the results follow.

Experiments:
Experiment in all cases: glycan array binding signal (z-score within array); higher = stronger binding
Settings in all cases: glycan notation: IUPAC condensed, linker removed
[1] = target: Gal(b1-3)GlcNAc(a1-3)Gal(b1-4)GlcNAc
Summary of the method: (§1)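 Glycan array binding is given as a within-array Z-score, which can be read as non-binding when negative. The arrays, 3228 of them, came from the Consortium for Functional Glycomics database and were retained only where the protein sequence was available. Z-scores were averaged across arrays of the same protein sequence at different concentrations or buffers and across linkers.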

[2] = target: Gal(b1-3)GlcNAc(a1-6)Gal(b1-4)GlcNAc
Summary of the method: as §1

Gal(b1-3)GlcNAc(b1-2)Man = target: Gal(b1-3)GlcNAc(b1-2)Man
Summary of the method: as §1

[3] = target: Gal(b1-3)GlcNAc(b1-2)Man(a1-3)[Gal(b1-3)GlcNAc(b1-2)Man(a1-6)]Man(b1-4)GlcNAc(b1-4)GlcNAc
Summary of the method: as §1

[4] = target: Gal(b1-3)GlcNAc(b1-2)Man(a1-3)[Gal(b1-3)GlcNAc(b1-2)Man(a1-6)]Man(b1-4)GlcNAc(b1-4)[Fuc(a1-6)]GlcNAc
Summary of the method: as §1

[5] = target: Gal(b1-3)GlcNAc(b1-2)Man(a1-3)[GlcNAc(b1-4)][Gal(b1-3)GlcNAc(b1-2)Man(a1-6)]Man(b1-4)GlcNAc(b1-4)GlcNAc
Summary of the method: as §1

[6] = target: Gal(b1-3)GlcNAc(b1-2)[Gal(b1-3)GlcNAc(b1-6)]Man(a1-6)[Gal(b1-3)GlcNAc(b1-2)Man(a1-3)]Man(b1-4)GlcNAc(b1-4)GlcNAc
Summary of the method: as §1

[7] = target: Gal(b1-3)GlcNAc(b1-3)Gal(b1-3)GlcNAc
Summary of the method: as §1

[8] = target: Gal(b1-3)GlcNAc(b1-3)Gal(b1-4)Glc
Summary of the method: as §1

[9] = target: Gal(b1-3)GlcNAc(b1-3)Gal(b1-4)GlcNAc
Summary of the method: as §1

[10] = target: Gal(b1-3)GlcNAc(b1-3)Gal(b1-4)GlcNAc(b1-2)Man(a1-3)[Gal(b1-3)GlcNAc(b1-3)Gal(b1-4)GlcNAc(b1-2)Man(a1-6)]Man(b1-4)GlcNAc(b1-4)GlcNAc
Summary of the method: as §1

[11] = target: Gal(b1-3)GlcNAc(b1-3)Gal(b1-4)GlcNAc(b1-2)[Gal(b1-3)GlcNAc(b1-3)Gal(b1-4)GlcNAc(b1-6)]Man(a1-6)[Gal(b1-3)GlcNAc(b1-3)Gal(b1-4)GlcNAc(b1-2)Man(a1-3)]Man(b1-4)GlcNAc(b1-4)[Fuc(a1-6)]GlcNAc
Summary of the method: as §1

[12] = target: Gal(b1-3)GlcNAc(b1-3)Gal(b1-4)GlcNAc(b1-3)Gal(b1-4)GlcNAc(b1-2)[Gal(b1-3)GlcNAc(b1-3)Gal(b1-4)GlcNAc(b1-3)Gal(b1-4)GlcNAc(b1-6)]Man(a1-6)[Gal(b1-3)GlcNAc(b1-3)Gal(b1-4)GlcNAc(b1-3)Gal(b1-4)GlcNAc(b1-2)Man(a1-3)]Man(b1-4)GlcNAc(b1-4)[Fuc(a1-6)]GlcNAc
Summary of the method: as §1

[13] = target: Gal(b1-3)GlcNAc(b1-3)Gal(b1-4)GlcNAc(b1-6)[Gal(b1-3)GlcNAc(b1-3)]Gal(b1-4)Glc
Summary of the method: as §1

[14] = target: Gal(b1-3)GlcNAc(b1-3)Gal(b1-4)[Fuc(a1-3)]GlcNAc(b1-6)[Gal(b1-3)GlcNAc(b1-3)]Gal(b1-4)Glc
Summary of the method: as §1

[15] = target: Gal(b1-3)GlcNAc(b1-3)GalNAc
Summary of the method: as §1

[16] = target: Gal(b1-3)GlcNAc(b1-6)Gal(b1-4)GlcNAc
Summary of the method: as §1

[17] = target: Gal(b1-3)GlcNAc(b1-6)GalNAc
Summary of the method: as §1

[18] = target: Gal(b1-3)GlcNAc(b1-6)[Gal(b1-3)]GalNAc
Summary of the method: as §1

Gal(b1-3)GlcNAc6S = target: Gal(b1-3)GlcNAc6S
Summary of the method: as §1

[19] = target: Gal(b1-3)[Fuc(a1-4)]GlcNAc
Summary of the method: as §1

[20] = target: Gal(b1-3)[Fuc(a1-4)]GlcNAc(b1-2)Man
Summary of the method: as §1

[21] = target: Gal(b1-3)[Fuc(a1-4)]GlcNAc(b1-2)Man(a1-3)[Gal(b1-3)[Fuc(a1-4)]GlcNAc(b1-2)Man(a1-6)]Man(b1-4)GlcNAc(b1-4)[Fuc(a1-6)]GlcNAc
Summary of the method: as §1

[22] = target: Gal(b1-3)[Fuc(a1-4)]GlcNAc(b1-3)Gal(b1-3)[Fuc(a1-4)]GlcNAc
Summary of the method: as §1

[23] = target: Gal(b1-3)[Fuc(a1-4)]GlcNAc(b1-3)Gal(b1-4)GlcNAc
Summary of the method: as §1

[24] = target: Gal(b1-3)[Fuc(a1-4)]GlcNAc(b1-3)Gal(b1-4)[Fuc(a1-3)]GlcNAc
Summary of the method: as §1

[25] = target: Gal(b1-3)[Fuc(a1-4)]GlcNAc(b1-6)GalNAc
Summary of the method: as §1

[26] = target: Gal(b1-3)[GlcNAc(b1-6)]GalNAc
Summary of the method: as §1

[27] = target: Gal(b1-3)[Neu5Ac(a2-6)]GalNAc
Summary of the method: as §1

[28] = target: Gal(b1-3)[Neu5Ac(a2-6)]GlcNAc(b1-4)Gal(b1-4)Glc
Summary of the method: as §1

[29] = target: Gal(b1-3)[Neu5Ac(a2-6)]GlcNAc(b1-6)Gal(b1-4)Glc
Summary of the method: as §1

[30] = target: Gal(b1-3)[Neu5Ac(b2-6)]GalNAc
Summary of the method: as §1

Gal(b1-4)Gal = target: Gal(b1-4)Gal
Summary of the method: as §1

[31] = target: Gal(b1-4)GalNAc(a1-3)[Fuc(a1-2)]Gal(b1-4)GlcNAc
Summary of the method: as §1

[32] = target: Gal(b1-4)GalNAc(b1-3)[Fuc(a1-2)]Gal(b1-4)GlcNAc
Summary of the method: as §1

Gal(b1-4)Glc = target: Gal(b1-4)Glc
Summary of the method: as §1

Gal(b1-4)Glc6S = target: Gal(b1-4)Glc6S
Summary of the method: as §1

B1: Gal 8 (Homo sapiens) (protein)
chain: MLSLNNLQNIIYNPVIPYVGTIPDQLDPGTLIVICGHVPSDADRFQVDLQNGSSVKPRADVAFHFNPRFKRAGCIVCNTLINEKWGREEITYDTPFKREKSFEIVIMVLKDKFQVAVNGKHTLLYGHRIGPEKIDTLGIYGKVNIHSIGFSFSSDLQSTQASSLELTEISRENVPKSGTPQLQTVSPSWDLQGHGSETFCSVLWTRVFLEIAFCRPIGLTVASFQSLPFAARLNTPMGPGRTVVVKGEVNANAKSFNVDLLAGKSKDIALHLNPRLNIKAFVRNSFLQESWGEEERNITSFPFSPGMYFEMIIYCDVREFKVAVNGVHSLEYKHRFKELSSIDTLEINGDIHLLEVRSW
For B1, the “glycan array binding signal (z-score)” value [1] was -0.139, the “glycan array binding signal (z-score)” value [2] was -0.356 and the “glycan array binding signal (z-score)” value (Gal(b1-3)GlcNAc(b1-2)Man) was -0.354. The “glycan array binding signal (z-score)” value [3] was -0.369, the “glycan array binding signal (z-score)” value [4] was -0.352 and the “glycan array binding signal (z-score)” value [5] was -0.352. For the same binder, the “glycan array binding signal (z-score)” value [6] was -0.284, the “glycan array binding signal (z-score)” value [7] was -0.267 and the “glycan array binding signal (z-score)” value [8] was 0.335. The “glycan array binding signal (z-score)” value [9] was -0.211, the “glycan array binding signal (z-score)” value [10] was 0.068 and the “glycan array binding signal (z-score)” value [11] was 0.761. The “glycan array binding signal (z-score)” value [12] was 2.98, the “glycan array binding signal (z-score)” value [13] was -0.178 and the “glycan array binding signal (z-score)” value [14] was -0.262. For the same binder, the “glycan array binding signal (z-score)” value [15] was -0.359, the “glycan array binding signal (z-score)” value [16] was -0.35 and the “glycan array binding signal (z-score)” value [17] was -0.355. The “glycan array binding signal (z-score)” value [18] was -0.313, the “glycan array binding signal (z-score)” value (Gal(b1-3)GlcNAc6S) was -0.057 and the “glycan array binding signal (z-score)” value [19] was -0.386. The “glycan array binding signal (z-score)” value [20] was -0.347, the “glycan array binding signal (z-score)” value [21] was -0.357 and the “glycan array binding signal (z-score)” value [22] was -0.102. For the same binder, the “glycan array binding signal (z-score)” value [23] was -0.076, the “glycan array binding signal (z-score)” value [24] was -0.39 and the “glycan array binding signal (z-score)” value [25] was -0.355. For the same binder, the “glycan array binding signal (z-score)” value [26] was -0.334, the “glycan array binding signal (z-score)” value [27] was -0.373 and the “glycan array binding signal (z-score)” value [28] was -0.349. The “glycan array binding signal (z-score)” value [29] was -0.055, the “glycan array binding signal (z-score)” value [30] was -0.387 and the “glycan array binding signal (z-score)” value (Gal(b1-4)Gal) was -0.356. For the same binder, the “glycan array binding signal (z-score)” value [31] was 0.461, the “glycan array binding signal (z-score)” value [32] was -0.359 and the “glycan array binding signal (z-score)” value (Gal(b1-4)Glc) was -0.199. The “glycan array binding signal (z-score)” value (Gal(b1-4)Glc6S) was 0.122.
